Measured values: PubChem BioAssay AID686970 (National Center for Advancing Translational Sciences (NCATS), 2013)
Hit rate of the full screen: of about 360,000 compounds, about 6,000 (1.7%) were called active. The inconclusive results got no clear call from the source; some entries with a clear call stand among them for comparison. The call rests on the fitted dose curve; in most records, active means well fitted cell-killing curve with a large enough effect; inconclusive means small, poorly fitted or top-dose-only effect, or effect the other way; inactive means flat fitted curve, though single readings scatter. Potencies of inconclusive entries are left out as doubtful fits.

Assay: qHTS for induction of synthetic lethality in tumor cells producing 2HG: qHTS for the HT-1080-NT fibrosarcoma cell line;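 further: NT is the 2HG producing partner of a matched IDH1 knockdown line; nearly all actives have a fitted effect of over 55% in size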;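 on activity, negative = less viability: 0% = DMSO-treated cells and -100% = media-only wells without cells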
Settings: HT-1080-NT fibrosarcoma viability, CellTiter-Glo ATP luminescence, 48 h; activity, negative = less viability: at 46.1 µM (top of the series) unless noted
Outline: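 Toxicity toward the 2HG-producing NT line was scored as %Activity, normalised to DMSO and no-cell wells, from CellTiter-Glo luminescence after 48 hours' treatment.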
Potency means the concentration at half of the fitted maximal effect; tags describe the fitted curve by direction and shape.

Compound | activity, negative = less viability | Potency
CCOc1ccc(OCC(=O)N2CCOCC2)cc1 | inactive: 17.7% | –
COc1ccc(C(C)(O)c2nc(-c3ccc(C)c(C)c3)cs2)cc1 (stereo not given) | – | inconclusive [cytotoxic, single point]
CNCCCC12CCC(c3ccccc31)c1ccccc12 | – | active: 18.4 µM
COc1ccc(C(=O)NC(=S)NNC(=O)CCc2ccccc2)cc1 | – | inconclusive [cytotoxic, partial curve]
Cc1cc(C)c2c(c1)-c1c(ssc1=S)C(C)(C)N2C(=O)CSc1nncn1C | – | inconclusive [cytotoxic, partial curve]
Cc1cc(NC(=O)Nc2cccc(Cl)c2)n(-c2ccccn2)n1 | – | inconclusive [cytotoxic, single point]
O=C(Nc1cccc(C(F)(F)F)c1)n1cc(-c2ccccn2)c(N2CCOCC2)n1 | – | inconclusive [cytotoxic, single point]
CN(C(=O)C1CCCN(c2ncnc3c2nc2n3CCCCC2)C1)c1cccc(Cl)c1 (stereo not given) | – | inconclusive [cytotoxic, single point]
CC(C)(Oc1ccc(Cl)cc1)C(=O)OCC(=O)N1CCN(c2ccccc2)CC1 | inactive: -0.152% | –
COc1cc(-c2nc(C(=O)NCC3CCCO3)cc3c2[nH]c2ccccc23)cc(OC)c1OC (stereo not given) | – | inconclusive [cytotoxic, single point]
CC(C)=CC(=O)O[C@@H]1Cc2cc3ccc(=O)oc3cc2OC1(C)C | – | inconclusive [cytotoxic, partial curve]
C=CCN(CC=C)Cc1c(C)[nH]c2c(C)c(C)ccc2c1=O | – | inconclusive [rising, single point]
Cc1ccc(-c2nnc(CSc3nc(C(C)C)nc4sc(C)c(C)c34)o2)cc1 | – | inconclusive [rising, partial curve]
CCOc1ccc2c(c1)-c1c(ssc1=S)C(C)(C)N2C(=O)c1ccco1 | – | active: 4.61 µM
COc1ccc(NCc2nc3ccccc3n2C)cc1 | inactive: -19.4% | –
COc1ccc(-c2csc3nc(-c4ccccc4OC)oc(=O)c23)cc1 | – | inconclusive [cytotoxic, single point]
CSc1nc(N)nc2c1ncn2CC(=O)NCc1ccc2c(c1)OCO2 | inactive: -2.02% | –
CCNC(=O)C1CCCN(C(=O)c2ccc3c(c2)OCO3)CC1 (stereo not given) | – | inconclusive [rising, partial curve, poor fit]
Cc1c(Cl)cccc1NC(=O)C(=O)NNC(=O)c1ccccc1F | – | inconclusive [cytotoxic, single point]
Nc1nc(-c2ccccc2)nc(-c2ccccc2O)n1 | – | inconclusive [cytotoxic, single point]
O=C(CSc1nnc(SCc2ccc(Cl)cc2)s1)N/N=C/c1c[nH]c2ccccc12 | – | inconclusive [cytotoxic, single point]
CC(C)(C)c1cc(C(=O)NNc2ccc(OC(F)(F)F)cc2)n(Cc2ccccc2)n1 | – | inconclusive [cytotoxic, full curve]
COCCNC(=O)C1(C)CCCN(C(=O)c2ccc(C(F)(F)F)cc2)C1 (stereo not given) | inactive: 29.9% | –

Compound | activity, negative = less viability | Potency
CC(C)c1ccc(S(=O)(=O)N2CCN(C(=S)NCc3ccco3)CC2)cc1 | inactive: -1.06% | –
Cc1cc(OCC(O)CN2CCc3ccccc3C2)ccc1Cl (stereo not given) | – | inconclusive [cytotoxic, single point]
O=C(c1ccc([N+](=O)[O-])cc1)N(Cc1ccccc1)c1ccccn1 | inactive: 5.04% | –
Cc1cc2c(cc1C)-n1nnnc1C(N(C)Cc1ccccc1)C(=O)N2 (stereo not given) | inactive: -5.95% | –
O=C(Nc1ccccc1F)c1ccc([N+](=O)[O-])s1 | – | inconclusive [cytotoxic, partial curve]
CC(C)NC(=O)CCCN1C(=O)c2ccccc2Sc2ncccc21 | inactive: -0.358% | –
Cc1ccc(N2C(N)=NC(N)=NC2(C)C)c(C)c1 | – | inconclusive [cytotoxic, single point]
CCC(=O)N1CCc2cc(S(=O)(=O)CCC(=O)NCCc3ccc(S(N)(=O)=O)cc3)ccc21 | – | inconclusive [rising, single point]
CCN(CC)S(=O)(=O)c1ccc(OC)c(NC(=O)OCc2ccccc2)c1 | – | inconclusive [cytotoxic, single point]
CCCCCNc1nc2sc3c(c2c(=O)n1-c1cccc(Cl)c1)CCN(C)C3 | – | active: 14.6 µM
N#Cc1c(NCCO)nc(NCc2ccccc2)c2c1CCN(Cc1ccccc1)C2 | – | inconclusive [cytotoxic, single point]
O=C(Nc1ccc2c(c1)OCO2)C1CCN(S(=O)(=O)c2cccs2)CC1 | – | inconclusive [cytotoxic, partial curve]
CCCCC(=O)NC(c1ccccc1)c1ccc2cccnc2c1O (stereo not given) | – | inconclusive [cytotoxic, full curve]
COc1ccc2cnn(-c3ccc(OC(F)(F)Cl)cc3)c(=O)c2c1OC | – | inconclusive [rising, single point]
COc1ccc(-c2cc3ccccc3n2CC(O)CNC(CO)(CO)CO)cc1 (stereo not given) | inactive: -37.8% | –
CCOC(=O)C1=C(O)c2ccccc2C(=O)/C1=C\c1ccc(C)cc1 | – | inconclusive [cytotoxic, partial curve]
CSCc1cc(N(C)C)nc(SCc2ccc(Cl)cc2Cl)n1 | – | inconclusive [cytotoxic, single point]
COc1ccc(-c2ccc(CCC(=O)O)n2CC2CCCO2)cc1 (stereo not given) | – | inconclusive [cytotoxic, single point]
NNC(=O)CC(=O)NC1(Cc2ccc(O)cc2)CCCCC1 | inactive: 3.64% | –
CCCCC(=O)NC(c1cccs1)c1cc(Cl)c2cccnc2c1O (stereo not given) | – | inconclusive [cytotoxic, partial curve]
CC(=O)N1c2ccc(S(=O)(=O)NCCC(=O)NC3CCC(C)CC3)cc2CC1C (stereo not given) | inactive: 6.33% | –
CNC(=S)N/N=C1\C(=O)c2cccc3cccc1c23 | – | inconclusive [cytotoxic, single point]
